The text below walks through data of PubChem BioAssay AID463173 (ICCB-Longwood Screening Facility, Harvard Medical School, 2010).

Hit rate of the full screen: of about 52,000 compounds, about 1,700 (3.3%) were called active. Rule as the data show it: active = survival mostly below about 52% (no sharp cut-off); inactive = mostly above about 56%. Some of the results follow.

The subject of the experiment is Wild type. Briefly: growth inhibition of S. aureus wild type versus tarO mutant, primary screen, teichoic acid synthesis inhibitors, RN4220, OD600 (AID 463173). To be noted: S. aureus RN4220 wild type/DeltatarO growth, OD600, 18 h, stronger effect = lower value, screened at 18.75 µg/mL (by protocol).
For the compound `O=C(CSc1nc2c([nH]c3ccccc32)c(=O)n1-c1ccccc1)Nc1ccccc1F`, the survival is inactive: 72%.
As to `Cc1ccc(-c2c(C)n3c4c(=O)n(C)c(=O)n(C)c4nc3n2CCCO)cc1`, the survival is inactive: 80%.
Under `CCOc1ccc(NC(=O)C2CCCN(S(=O)(=O)c3ccc(Br)s3)C2)cc1` (stereo not given) stands inactive: 75%; under `COc1ccc(C(=O)Nc2cccc(-c3nc4cccnc4s3)c2C)c(OC)c1`, inactive: 118%; under `CCOC(=O)c1ccccc1NC(=O)Cn1c(=O)n(Cc2ccc(C(=O)NCc3ccc4c(c3)OCO4)cc2)c(=O)c2ccccc21`, inactive: 95%.
The same measure for `CC(=O)N1c2c(cc(Br)cc2S(=O)(=O)Nc2ccccc2C)CC1C` (stereo not given): inactive: 64%; for `Cc1cccc(C(=O)NC(=O)Nc2ccc(-n3nc(C(F)(F)F)cc3C(F)(F)F)cc2)c1`: inactive: 78%; for `CC(=O)N1CCCc2cc(S(=O)(=O)N3CCC(N(C)C(C)C)CC3)ccc21`: inactive: 128%.
For `CCOc1cc(Br)c(C2C(C(=O)OC)=C(C)NC3=C2C(=O)c2ccccc23)cc1OCC` (stereo not given), the survival was inactive: 96%.
The same measure for `COCCCNC(=O)C1CCN(c2ncnc3c2nc2n3CCCCC2)CC1`: inactive: 89%; for `O=C(Nc1cccc(C(F)(F)F)c1)c1ccc(F)c(S(=O)(=O)N2CCc3ccccc3C2)c1`: inactive: 81%; for `Cc1c2cnn(CC(=O)NCc3ccc(F)cc3)c(=O)c2c(C)n1Cc1ccccc1Cl`: inactive: 94%.
The same measure for `COc1ccc(-c2nc(C)c(CCNC(=O)c3ccccc3Br)s2)cc1OC`: inactive: 64%; for `COc1cccc(Cn2cnc3c2c(=O)n(C)c(=O)n3C)c1`: inactive: 135%; for `COc1ccc2c(c1)c1c(c(=O)n(-c3ccc(C)cc3)c(=O)n1CC(=O)Nc1cc(C)ccc1C)n2C`: inactive: 115%.
Under `Cc1nc2c(C(=O)NCCC(C)C)cnn2c(C)c1Cc1c(F)cccc1Cl` stands inactive: 45%; under `CCC(C)NC(=O)C1CCN(S(=O)(=O)c2ccc3c(ccn3CC)c2)CC1` (stereo not given), active: 0%.
Turning to `O=C(O)c1ccccc1NC(=O)N1c2ccccc2Sc2ccccc21`, the survival was inactive: 28%.
Under `COc1ccccc1CNC(=O)c1cc2cc(S(=O)(=O)N3CCCCC3)ccc2n1C` stands inactive: 83%; under `CCOC(=O)C1CCCN(C(=O)C2CCN(S(=O)(=O)c3c(C)noc3/C=C/c3ccc(C)cc3)CC2)C1` (stereo not given), inactive: 66%.
Under `COc1cccc2sc(N(Cc3cccnc3)C(=O)c3ccc(S(=O)(=O)N(C)C)cc3)nc12` stands inactive: 77%; under `COc1cc2c(cc1OC)C(c1cc(OC)c(O)c(OC)c1)CC(=O)N2` (stereo not given), inactive: 80%; under `CC1CCCN(Cc2c(O)ccc3c(=O)c(-c4ccc(Cl)cc4)c(C(F)(F)F)oc23)C1` (stereo not given), inactive: 71%.
For the compound `Cc1cc(OCC(=O)Nc2ncn[nH]2)c(C)c(C)c1Br`, the survival is inactive: 133%.
The same measure for `CC(=O)NC1=NN(C(C)=O)C(C)(CS(=O)(=O)c2ccc(C)c(C)c2)S1` (stereo not given): inactive: 112%; for `O=S(N1CCCCC1)C12CC3CC(CC(C3)C1)C2` (stereo not given): inactive: 123%.
Under `Cc1cc(C)cc(N2C(=O)CS(=O)(=O)C23C(=O)N(Cc2ccccc2)c2ccccc23)c1` (stereo not given) stands inactive: 85%.
The same measure for `CCc1cc(=O)[nH]c(SCc2nc(-c3ccccc3C)no2)n1`: inactive: 91%; for `N#Cc1nc(COc2ccc(Cl)cc2)oc1NCc1ccco1`: inactive: 109%.
Turning to `CCOC(=O)C1CCN(c2ncnc3c2c(-c2ccccc2)cn3-c2ccc(C)c(Cl)c2)CC1`, the survival was inactive: 68%.
For the compound `COc1nnc(-c2ccc(N3CCCCC3)c(NC(=O)c3ccc(Cl)cc3)c2)c2ccccc12`, the survival was inactive: 96%.
The same measure for `COc1ccc(-c2cc(C(F)(F)F)nc(SCC(=O)Nc3ccc(C(C)=O)cc3)n2)cc1`: inactive: 60%; for `O=C(NCCc1csc(-c2ccc(F)cc2)n1)C(=O)Nc1ccc(Cl)cc1`: inactive: 70%.
In the case of `O=C1NC(=O)C(c2ccccc2)(c2ccccc2)N1`, the survival is inactive: 86%.
Under `COc1ccc(OC)c(NC(=O)c2nc(SCc3ccc(F)cc3)ncc2Cl)c1` stands inactive: 100%; under `O=C(/C=C1\NC2(CCCC2)Cc2ccccc21)N1CCOCC1`, inactive: 111%.
On to `CCC(=O)N1c2ccc(S(=O)(=O)NCCc3ccccc3)cc2CC1C` (stereo not given), for which the survival was inactive: 72%.
Under `O=C(/C=C/c1cn(CC(O)CN2CCc3ccccc32)c2ccccc12)c1ccc(Br)cc1` (stereo not given) stands inactive: 70%; under `COC(=O)c1ccccc1NC(=O)N(Cc1ccc(C)cc1)Cc1cccn1-c1nnc(N2CCCC2=O)s1`, inactive: 123%.
As for `Cc1ccc(CNS(=O)(=O)c2c(C(=O)N3CCC(C)CC3)c(C)n(C)c2C)cc1`, the survival is inactive: 76%.
Turning to `COc1ccc(C)cc1NC(=O)C1CCN(S(=O)(=O)c2cccc3nonc23)CC1`, the survival is inactive: 96%.
In the case of `CCOC(=O)c1[nH]c(C)c(CCC(=O)NCc2ccc(OC(C)C)cc2)c1C`, the survival was inactive: 89%.
The same measure for `Cc1sc2ncn(CC(=O)Nc3ccc(C(F)(F)F)cc3)c(=O)c2c1S(=O)(=O)N1CCN(C)CC1`: inactive: 126%; for `Cc1cc(Nc2cccc(O)c2)c2cccc(Br)c2n1`: inactive: 73%; for `CC1=NN(C(=O)c2ccccc2Cl)C(O)(C2CCCCC2)C1` (stereo not given): inactive: 108%.
Under `CCc1ccc(S(=O)(=O)c2cn(CC(=O)Nc3cccc(C)c3)c3ccc(Cl)cc3c2=O)cc1` stands inactive: 71%.
Under `Cc1nnc(SCC(=O)N(c2ccccc2)c2ccccc2)nc1C` stands inactive: 103%.
`Cc1cccc(NC(=O)CSc2nnc3c4ccccc4n(C)c3n2)c1`: the survival was inactive: 87%.
Under `COC(=O)c1ccccc1NC(=O)c1sc2nc(C)cc(C)c2c1NC(=O)c1ccccc1Cl` stands inactive: 70%; under `COc1ccc(NC(=O)CN2CCC(N3CCCCC3)CC2)c(OC)c1`, inactive: 98%.
Consider `Cc1cc(/C=C(\C#N)C(=O)Nc2ccccc2)c(C)n1-c1ccc(F)cc1`, for which the survival was inactive: 83%.
The same measure for `COc1ccc2c(CNCc3cccs3)c(C(=O)O)n(Cc3cccc(F)c3)c2c1`: inactive: 71%.
Consider `COc1ccc(NC(=O)c2cc(C(C)=O)n3ccccc23)cc1Cl`, for which the survival is inactive: 87%.
With `CCOC(=O)c1cccc(NC(=O)C2CCN(S(=O)(=O)c3c(C)noc3/C=C/c3ccc(C)cc3)CC2)c1`, the survival is inactive: 88%.
Take `CC(CNC(=O)c1ccc2nc(CCc3ccccc3)oc2c1)c1ccccc1` (stereo not given): the survival was inactive: 82%.
